Assay results taken from PubChem BioAssay AID488969 (Vanderbilt High Throughput Screening Facility, 2010).
The full ranking holds about 110,000 compounds; the median of “z-score” is about -0.1, and the highest 2% start at about 2. Some of the results follow. The source made the active and inactive calls.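 How the source made its calls: active means z-score in the third read window above 3 or below -3; inactive means the rest.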

The compounds below were run against Metabotropic glutamate receptor 8 (Rattus norvegicus) (UniProt P70579) (assay: rat mGluR8 modulators via GIRK flux, primary screen, cell-based, thallium flux, HTS (AID 488969)). Conditions: HEK293 rat mGluR8, GIRK (G protein-gated inwardly rectifying potassium channel) thallium flux, FluoZin2; at 10 µM; stronger effect = higher value; submaximal glutamate (EC20) added with thallium.
UniProt P70579, sequence (P70579 whole entry, looked up): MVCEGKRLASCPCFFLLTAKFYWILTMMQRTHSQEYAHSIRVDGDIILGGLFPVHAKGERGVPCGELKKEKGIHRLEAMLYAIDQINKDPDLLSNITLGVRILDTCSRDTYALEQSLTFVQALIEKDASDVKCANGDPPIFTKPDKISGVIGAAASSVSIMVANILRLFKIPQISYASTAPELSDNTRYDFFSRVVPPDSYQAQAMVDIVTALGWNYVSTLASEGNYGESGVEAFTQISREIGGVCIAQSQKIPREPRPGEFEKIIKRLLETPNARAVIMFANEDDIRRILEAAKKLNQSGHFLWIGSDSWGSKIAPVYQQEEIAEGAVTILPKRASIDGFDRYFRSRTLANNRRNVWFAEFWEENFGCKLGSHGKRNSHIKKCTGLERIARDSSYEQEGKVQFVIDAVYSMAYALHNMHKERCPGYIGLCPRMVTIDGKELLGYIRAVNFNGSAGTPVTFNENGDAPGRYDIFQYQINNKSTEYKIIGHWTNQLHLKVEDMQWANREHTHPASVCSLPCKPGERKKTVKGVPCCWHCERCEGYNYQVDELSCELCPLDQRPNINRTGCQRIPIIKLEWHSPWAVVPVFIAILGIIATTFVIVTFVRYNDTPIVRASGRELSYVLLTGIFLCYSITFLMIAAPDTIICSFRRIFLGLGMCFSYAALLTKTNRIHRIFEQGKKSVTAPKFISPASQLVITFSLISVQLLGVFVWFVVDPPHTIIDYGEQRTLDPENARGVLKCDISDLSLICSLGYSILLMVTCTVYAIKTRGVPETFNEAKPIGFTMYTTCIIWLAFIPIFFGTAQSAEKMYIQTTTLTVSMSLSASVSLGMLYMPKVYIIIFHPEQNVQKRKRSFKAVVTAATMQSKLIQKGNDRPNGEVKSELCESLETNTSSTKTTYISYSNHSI

Row | SMILES | z-score
1 | CCCCCn1c(CN2CCN(c3cc(Cl)ccc3C)CC2)nc2c1c(=O)[nH]c(=O)n2C | 0.74
2 | O=C(c1ccco1)N1CCN(c2nc(C3CC3)nc3c2nnn3Cc2ccccc2Cl)CC1 | 0.00404
3 | CC(=O)Nc1ccc(NCN2C(=O)C3C4CCC(C4)C3C2=O)cc1 (stereo not drawn) | 0.0136
4 | CCOc1ccc(-c2nc(C#N)c(NCc3ccc4c(c3)OCO4)o2)cc1 | 0.406
5 | Cc1nc2cc(-c3sccc3-n3cccc3)nn2c(C)c1C | 0.334
6 | COc1ccc2nc(SCC(=O)O)nc(C)c2c1 | -0.216
7 | COC(=O)c1sc(S(=O)(=O)N2CCCCC2C(=O)O)c(C(=O)OC)c1C (stereo not drawn) | -0.184
8 | O=C(NCc1cccnc1)c1ccc(CS(=O)(=O)c2ccc(Cl)cc2)o1 | 0.0226
9 | Cc1nc2scc(-c3cccs3)c2c(=O)[nH]1 | 0.0765
10 | CN(C)CCN1C(=O)C(O)=C(C(=O)c2cc3ccccc3o2)C1c1ccc(N(C)C)cc1 (stereo not drawn) | -0.145
11 | COc1cc(=O)n(C)c2cc(N(C)C)ccc12 | -0.569
12 | CCN1CCN(CC(=O)Nc2ccccc2)C(=O)C1=O | -0.229
13 | CCc1ccc(NC(=O)CSc2n[nH]c(C)c2[N+](=O)[O-])cc1 | -0.0704
14 | COC(=O)c1ccccc1NC(=O)CN1CCC(n2nnc3cc(C(F)(F)F)ccc32)CC1 | -0.434
15 | COc1ccc(N2CCN(C(=O)CSc3nc4c(c(=O)n(C)c(=O)n4C)n3C(C)C)CC2)cc1 | 0.00806
16 | Clc1cccc(Cl)c1CNC1CCCC1 | 0.0492
17 | COC(=O)Nc1ccc(C)c2nsnc12 | -0.223
18 | O=C(NCc1cc(C(F)(F)F)cc(C(F)(F)F)c1)C1CC(c2c(Cl)cccc2Cl)=NO1 (stereo not drawn) | -0.111
19 | O=C(Nc1ccccc1C(=O)N1CCCC1)c1cccc(S(=O)(=O)N2CCCCC2)c1 | -0.309
20 | O=S(=O)(Nc1nc2ccccc2nc1Nc1ccc2c(c1)OCO2)c1ccc(F)cc1 | -0.192
21 | C#CCN(C#N)c1nc(NCC)nc(NC(C)C)n1 | -0.177
22 | CCN(CC)C(=O)c1cccc(-c2ccc(OC)cc2)c1 | -0.0256

Row | SMILES | z-score
23 | CCOC(=O)c1cc(NC(=O)N(CC)C2CCCCC2)c(C)nc1C | -0.22
24 | COc1ccc(N(C(=O)COc2ccccc2OC)S(=O)(=O)c2ccc(C)cc2)cc1 | -0.375
25 | Cc1ccc(NC(=O)c2ccc(Cl)c(N3C(=O)C=CC3=O)c2)cc1 | -0.0244
26 | Cc1cc(C)c(NC(=O)CN(c2ccccc2)S(=O)(=O)N(C)C)c(C)c1 | -0.0557
27 | Cc1ccc(/C=N\NC(=O)Cn2c(C)nc3ccccc32)o1 | -0.152
28 | CCn1c(-c2cc3c(C(F)(F)F)nn(C)c3s2)n[nH]c1=S | active: 7
29 | CC(C)OC(=O)c1c(NC(=O)c2cnn3c2NC(c2ccccc2)CC3C(F)F)sc2c1CCCC2 (stereo not drawn) | -0.443
30 | CCC(C)/C(C)=N/NC(=O)c1cn(-c2ccccc2)nc1-c1ccccc1 (stereo not drawn) | -0.313
31 | Fc1ccccc1/C=C1\CCCC2=C1Nc1nnnn1C2c1ccccc1F (stereo not drawn) | 0.114
32 | O=C(CN1CCN(c2ccccn2)CC1)Nc1ccc(OCc2ccccc2)cc1 | -0.123
33 | CCC(=O)NC(/C=C/c1ccccc1)c1cc([N+](=O)[O-])c2cccnc2c1O (stereo not drawn) | 0.0672
34 | COc1ccc(-n2c(C)cc(SC)c(C(C)=O)c2=S)cc1 | -0.0894
35 | O=[N+]([O-])c1cc(/C=N/O)ccc1Sc1ccccc1 | 1.5
36 | O=C(COC(=O)/C=C/c1cn(-c2ccccc2)nc1-c1cccnc1)Nc1ccc(Cl)cc1Cl | 0.113
37 | CS(=O)(=O)N(CC(=O)Nc1ccccc1Sc1ccccc1)C1CCCCC1 | -0.0112
38 | O=S(=O)(NCc1cn2ccccc2n1)c1cc(F)ccc1F | 0.364
39 | CCc1nnc(NC(=O)CSc2nnc(COc3ccccc3C)o2)s1 | 0.0603
40 | CC1=C(C(N)=O)C(c2cccc(OCc3ccccc3)c2)n2nnnc2N1 (stereo not drawn) | -0.387
41 | O=C(Oc1ccc2ccc(OC(=O)N3CCOCC3)cc2c1)N1CCOCC1 | -0.11
42 | Cn1cccc1-c1nc2ccc(NC(=O)c3ccc([N+](=O)[O-])cc3)cc2[nH]1 | 0.0495
43 | CCOC(=O)C1=C(C)Nc2nc(SC)nn2C1c1ccc(C(=O)OC)cc1 (stereo not drawn) | -0.402
44 | N#Cc1nc(N2CCCCC2)nc(N2CCOCC2)n1 | -0.0259

Row | SMILES | z-score
45 | C/C(Cl)=C/Cn1c(SCc2ccc(Cl)cc2)nc2c1c(=O)[nH]c(=O)n2C | -0.0677
46 | CCCNC(=O)C(=O)c1cccn1-c1ccsc1C(=O)OC | -0.122
47 | CCN=C1SC(C(=O)NCCc2ccccc2)CC(=O)N1CC (stereo not drawn) | -0.161
48 | CN1CCc2nc(SCC(=O)Nc3cccc(F)c3)c(C#N)c(-c3cccs3)c2C1 | -0.0246
49 | COc1ccc(C(=O)c2ccc(OC)c(OC)c2)cc1OC | -0.174
50 | CCOc1ccccc1Nc1nnc(SCC(=O)N2CCCC2)s1 | 0.0764
51 | O=C1CC(c2ccncc2)c2cc3c(cc2N1)OCCO3 (stereo not drawn) | active: 7.59
52 | CC(=O)Nc1ccc(S(=O)(=O)N(C)c2ccc(O)cc2)cc1 | 0.0757
53 | CCC(=O)OCCn1c(=O)c2cc3c(=O)n(CCOC(=O)CC)c(=O)c3cc2c1=O | -0.0607
54 | CC(C)(C)c1ccc(/C=N/Nc2ccc(C(=O)O)cc2)cc1 | -0.659
55 | CCOC(=O)C1CCCN(C2CC(=O)N(c3cccc(C)c3)C2=O)C1 (stereo not drawn) | 0.0843
56 | O=C(Nc1nc(-c2ccc3c(c2)OCCO3)cs1)c1ccc(S(=O)(=O)N2CCCCC2)cc1 | 1
57 | COc1cccc(C(=O)NN/C(C)=C/C(=O)C(F)(F)C(F)(F)C(F)(F)F)c1 | -0.145
58 | O=S(=O)([N-]c1nc2ccccc2nc1-[n+]1ccccc1)c1ccccc1 | 0.0342
59 | COc1ccc(CCNC(=O)c2cc(-c3ccccc3)on2)cc1OC | 0.914
60 | O=C(NCCC1=CCCCC1)c1coc(=O)c(Br)c1 | -0.132
61 | Cc1ccc(C(=O)c2cc([N+](=O)[O-])ccc2N2CCOCC2)cc1C | -0.0564
62 | CCCn1nnnc1NC(=O)COc1ccc(Cl)c(C)c1 | 0.736
63 | O=C(O)C1C2C=CC(O2)C1C(=O)NCc1ccc(Cl)cc1 (stereo not drawn) | 0.78
64 | Cc1cc(N2C(=O)C(=O)/C(=C(/O)c3ccc(F)cc3)C2c2ccc(F)cc2)no1 (stereo not drawn) | -1
65 | Cc1ccccc1OC1C(=O)N(Cc2ccc3c(c2)OCO3)C1c1sccc1C (stereo not drawn) | -0.226
66 | COC(=O)c1ccc(NC(=S)N2CCN(Cc3ccc(Cl)cc3)CC2)cc1 | -0.52

Row | SMILES | z-score
67 | O=c1c2ccccc2nnn1CSc1ccc2ccccc2n1 | -0.0528
68 | Cc1ccc(/C(N)=N/OC(=O)CCc2ccccc2)cc1 | -0.148
69 | O=C1CNC(=S)N1c1nc(-c2ccccc2)cs1 | 0.219
70 | COc1ccc(-c2cnnc(N/N=C/c3ccc(O)c(OC)c3)n2)cc1 | -0.134
71 | Nc1nc(-c2ccc3ccccc3c2)c(C2(O)C(=O)Nc3c(Br)cc(F)cc32)s1 (stereo not drawn) | 0.203
72 | Cc1cc(C=C2C(=O)c3ccccc3C2=O)c(C)n1-c1ccccc1 | 1.73
73 | O=C(CC(c1ccccc1)c1ccccc1O)N1CCCC1 (stereo not drawn) | 0.0324
74 | CCOc1ccc(-c2csc(NC(=O)CSC3=NC(=O)CN3C(C)=O)n2)c2ccccc12 | -0.151
75 | CN(c1ccccc1C(=O)O)S(C)(=O)=O | -0.188
76 | CCN(C(=O)CN1CCN(c2ccccc2)CC1)c1c(N)n(Cc2ccccc2)c(=O)[nH]c1=O | -0.349
77 | COc1ccc(NC(=S)N2CCC(N(C)CCN3CCOCC3)CC2)cc1Cl | -0.269
78 | CCOC(=O)c1c(NC(=O)OC)sc2c1CCC2 | 0.00121
79 | CCOC(=O)c1sc2nc(C(C)C)c3c(c2c1N)CC(C)(C)OC3 | -0.0374
80 | O=C(CSc1n[nH]c(-c2ccccc2)n1)NC(=O)NCc1ccco1 | -0.0403
81 | CCOC(=O)c1ccc(NC(=O)CSc2nnc(-c3cccs3)n2C)cc1 | -0.387
82 | CCCn1c(SCC#N)nc2c(c1=O)C1(CCCC1)Cc1ccccc1-2 | -0.934
83 | Clc1ccc(Nc2ncnc3ccc(Br)cc23)cc1 | -0.324
84 | COC(=O)c1cc(NC(=O)CSc2nc(C)cc(=O)[nH]2)cc(C(=O)OC)c1 | -1.48
85 | N#CC(c1ccc(O)cc1)N1CCOCC1 (stereo not drawn) | 0.128
86 | CCOC(=O)C1=C(O)/C(=C\c2cccc(OC)c2)N=C1C | -0.194
87 | CC(=O)Nc1cccc(NC(=O)CSc2nc(C)c(C)c(C)c2C#N)c1 | -0.0738
88 | Cc1nc2ccccc2c2nc(N)nn12 | 0.346

Row | SMILES | z-score
89 | COc1cc(-c2nnc3n(CCc4ccccc4)c(=O)c4ccccc4n23)cc(OC)c1OC | -0.27
90 | CCOc1cc(/C=C2\C(=O)N(c3ccc(C(N)=O)cc3)N=C2C)ccc1OC(=O)c1cccs1 | 0.0117
91 | Cc1ccc(NC(=O)c2cc3c(=O)oc4ccccc4c3s2)nc1 | 0.238
92 | O=C(Cn1nnc2ccccc2c1=O)NCCc1ccc(Cl)cc1Cl | 0.684
93 | CCOC(=O)NC(NCc1ccccc1)(C(F)(F)F)C(F)(F)F | -0.243
94 | O=C(CSc1nc2cc(Cl)ccc2s1)N1CCCc2ccccc21 | -0.158
95 | Fc1cccc(F)c1CSc1nc2ccccc2[nH]1 | -0.786
96 | CN1c2cccc3cccc(c23)N(C)C1c1cccs1 | -0.099
97 | O=C(Oc1ccc2c(=O)c(Oc3ccc4ccccc4c3)coc2c1)c1cccnc1 | 0.217
98 | CCS(=O)(=O)N1CCC(NC(C)=O)(c2ccccc2)CC1 | 0.175
99 | COc1ccc(CNC(=O)Cc2nn(C)c(=O)c3ccccc23)cc1 | -0.155
100 | Cc1cc(C(=O)OCC(=O)N2CC(=O)Nc3ccccc32)c(C)n1-c1ccccc1 | -1.4
101 | CCNC(=O)C1CCCN1S(=O)(=O)c1ccc(OC)cc1 (stereo not drawn) | 0.787
102 | COC(=O)c1ccc(-n2nnnc2SCC(=O)Nc2ccccc2C(=O)OC)cc1 | 0.0292
103 | CCN(C(=O)Cn1c(=O)oc2ccccc21)C1CCS(=O)(=O)C1 (stereo not drawn) | -0.308
104 | CN(C#N)c1nc(N2CCOCC2)nc(N2CCOCC2)n1 | -0.397
105 | Cc1ccc(S(=O)(=O)c2nc(-c3ccccc3)oc2NCCN2CCOCC2)cc1 | 0.162
106 | CCOC(=O)c1c(-c2ccc(C)o2)csc1NC(=S)NC(=O)c1ccccc1Br | 0.406
107 | Nc1nonc1C(=O)N/N=C/c1cccc([N+](=O)[O-])c1 | -0.0121
108 | Cc1ccc(C2CC(=O)c3cnc(N4CCN(c5ccccc5)CC4)nc3C2)cc1 (stereo not drawn) | 0.776
